# Measured values taken from the supplement of paper PMC3334620.
# Whole data set: some 33,000 sequences, median “E-score (-0.5 to 0.5)” near -0.043, cut for the highest 2% near 0.37. Some of the results follow.
# Biological target: T1, Upc2 (UniProt Q12151)
# T1 sequence: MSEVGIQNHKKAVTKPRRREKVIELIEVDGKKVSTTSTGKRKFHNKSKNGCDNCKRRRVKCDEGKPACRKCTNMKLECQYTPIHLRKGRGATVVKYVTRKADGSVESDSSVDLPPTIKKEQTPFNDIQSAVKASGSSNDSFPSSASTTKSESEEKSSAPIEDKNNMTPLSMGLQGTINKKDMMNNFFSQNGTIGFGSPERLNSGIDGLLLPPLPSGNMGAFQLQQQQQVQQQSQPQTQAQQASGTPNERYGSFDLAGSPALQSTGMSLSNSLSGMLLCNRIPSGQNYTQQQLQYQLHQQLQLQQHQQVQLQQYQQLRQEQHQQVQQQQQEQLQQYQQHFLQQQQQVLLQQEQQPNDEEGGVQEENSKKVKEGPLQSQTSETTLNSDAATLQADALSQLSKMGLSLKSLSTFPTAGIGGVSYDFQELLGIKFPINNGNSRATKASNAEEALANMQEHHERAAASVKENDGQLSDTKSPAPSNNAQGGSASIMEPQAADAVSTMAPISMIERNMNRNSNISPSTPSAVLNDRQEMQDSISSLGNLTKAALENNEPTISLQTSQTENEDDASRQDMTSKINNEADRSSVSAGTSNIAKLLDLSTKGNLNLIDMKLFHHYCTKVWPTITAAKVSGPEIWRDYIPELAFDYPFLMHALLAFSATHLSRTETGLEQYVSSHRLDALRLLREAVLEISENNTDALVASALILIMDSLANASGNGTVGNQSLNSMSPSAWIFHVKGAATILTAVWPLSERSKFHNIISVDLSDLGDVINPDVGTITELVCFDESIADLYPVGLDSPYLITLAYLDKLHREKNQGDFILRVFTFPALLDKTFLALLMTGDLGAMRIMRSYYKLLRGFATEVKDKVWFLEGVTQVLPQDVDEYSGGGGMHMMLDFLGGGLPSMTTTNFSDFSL
# Assay: PBM E-score (8-mer binding enrichment) (E-score (-0.5 to 0.5)); higher = stronger / more preferred TF binding; most listed sequences are background and not binding sites
# Conditions: protein concentration: 200 nM; construct: GST-full length
# Experimental: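 Universal 'all 10-mer' protein binding microarrays (Agilent AMADID 015681) probed with GST-tagged S. cerevisiae TFs (full-length or DBD) made by in vitro transcription/translation (PURExpress), about 100-200 nM. Bound TF was detected with fluorescent anti-GST. Each ungapped 8-mer (which stands for itself and its reverse complement) is scored by the PBM enrichment score (E-score), a modified Wilcoxon-Mann-Whitney statistic from -0.5 to +0.5, computed with the Universal PBM Analysis Suite. Scale: above 0.35 generally sequence-specific binding.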
row,Sequence,PBM E-score
1,CAATACCC,-0.11
2,TCCGAAGA,0.0352
3,CGCAATAG,0.103
4,CGATGGCA,-0.0664
5,ACCGACGG,0.108
6,AACAGTGA,-0.0437
7,GTACAGTA,0.212
8,AGTCACAG,0.0677
9,CCCCCGCA,-0.158
10,CAGAAAGG,-0.157
11,TTACGCAA,0.176
12,GTTGTTCA,0.0925
13,TAGTACTA,0.0412
14,ACCGCCGG,-0.2
15,GAATTAAA,0.0808
16,CTACGTTA,0.118
17,ATTAGGTC,0.094
18,AGCACTTA,0.0453
19,CTAGATCC,-0.119
20,CCTAAACC,0.0842
21,GCCTGTGA,-0.329
22,GTCGTCAC,0.0697
23,ACGGTGAA,0.238
24,ATTATTAG,0.206
25,GGTCTCAA,-0.265

row,Sequence,PBM E-score
1,AGCATGCT,-0.0433
2,CGACACAG,0.122
3,CCCAACAA,-0.0187
4,AACTACCA,-0.103
5,GGTCGTCA,-0.0836
6,CACCACGG,-0.368
7,GCTCTGCA,-0.121
8,AAGCTTAA,0.0427
9,CTAAACCC,-0.216
10,ATTTTGGG,-0.135
11,CAAACTTA,-0.0208
12,CACATACA,-0.107
13,CACCCAGG,-0.0598
14,CCACGGAG,-0.225
15,AAGCTAAG,-0.199
16,TCCAAGAA,-0.193
17,TTCTCAAA,-0.0571
18,CCAGTTTC,-0.0827
19,ATTGGGCG,0.013
20,AATCACGC,-0.127
21,CTATTTAC,0.104
22,ATATATTG,-0.0515
23,GAGCTGAA,0.0495
24,TATTGCGA,0.0831
25,CTGGTATA,0.0396

row,Sequence,PBM E-score
1,TCCCGCCA,-0.215
2,GGCTTATA,0.0715
3,ACCGAGTA,0.25
4,ATAGAGGG,-0.0603
5,ACTTCTCC,-0.241
6,ATACCTAT,-0.0502
7,CGTCTCAC,0.0219
8,AATGCAAG,-0.199
9,CAATCCGC,-0.0821
10,CGAGAGAC,-0.129
11,GCGAGTGA,0.199
12,AACATCAA,0.086
13,TGGTAAAA,0.00024
14,ACTAAGAT,0.126
15,CGTAGGTC,-0.0765
16,TCATGTAA,0.0269
17,AAATGCGT,0.177
18,AGCGGCCC,-0.149
19,GAGTCTGA,-0.05
20,CATAGACA,0.0415
21,ATTTGTAC,0.16
22,CAAGCCTG,-0.326
23,ATGTTGCC,-0.138
24,GCGTTCAC,0.125
25,ACTACAGT,-0.0341

row,Sequence,PBM E-score
1,AAGCTACA,-0.125
2,ATGCTTAA,0.0206
3,CATCACGC,0.00359
4,AAGATTAA,-0.102
5,GAAACCTA,-0.27
6,GACCCTTA,-0.0817
7,CATTCCTC,0.164
8,CACCTGCG,-0.281
9,ATATTGGC,-0.138
10,CCGGGTGA,-0.231
11,AAGTGCGT,0.0739
12,CTCGGCAG,-0.0673
13,AAGCACCT,-0.268
14,GCATAAAA,0.0634
15,AAGATAGC,-0.0625
16,AAGCTTTG,-0.102
17,ATGTGAGC,-0.0772
18,TCAGGTCA,-0.16
19,ACTCGTGA,0.0994
20,CGTCCCGC,-0.11
21,AACGTTCG,0.212
22,ACTTTAAT,-0.15
23,ATGCAGTA,0.0236
24,GAAAGAGA,-0.0417
25,ACCGTCCC,-0.194

row,Sequence,PBM E-score
1,CTTCTAGA,-0.0794
2,ATCCGCTG,-0.0853
3,AACTTCCG,0.043
4,GTATTCAA,-0.0211
5,ACGGAGCG,0.263
6,AACAGAAT,-0.174
7,GTACCCGA,0.206
8,ACACTGCT,-0.116
9,CTCTCCGA,-0.0584
10,GATACACA,-0.0452
11,CATTTTGG,-0.12
12,CTAAATCA,-0.00665
13,AGAAATAG,-0.0417
14,ACTTCTAA,0.00078
15,GCCCGTCC,-0.239
16,TACTTGCA,0.0403
17,ACGGTACG,0.408
18,CCTACATA,-0.195
19,GGGTCTGA,-0.274
20,AGTCGAAA,0.0125
21,AGGTTCTG,0.0443
22,GTGGCATA,-0.0936
23,TGCCAGAA,-0.187
24,GAGAAGAA,0.0432
25,ACTGAGAG,-0.236

row,Sequence,PBM E-score
1,AGCGATTG,0.0959
2,AGTAGCTC,-0.145
3,ATATGCCG,0.196
4,TAGTTTCA,-0.0469
5,GTAAATAA,0.191
6,GACAGTCA,0.0137
7,AGGACATA,-0.0275
8,GACATAAA,0.0378
9,GTCCTGTA,0.0245
10,GTATCCTA,0.053
11,CACAGACG,-0.14
12,TACATGAA,0.131
13,CACCTCGG,0.0436
14,ACTGGACT,-0.307
15,GGAACTCC,-0.0932
16,AAGGCATC,0.0322
17,CTAAAGCA,-0.0624
18,ATGTATCG,0.226
19,ATCAGGTG,-0.13
20,GTGTAAAC,0.17
21,CTAGAGTC,-0.259
22,AGAGACTC,0.0674
23,CGAGTGCG,0.14
24,AGCCAACC,0.0299
25,AAGACGAC,0.133

row,Sequence,PBM E-score
1,TGAGATCA,-0.118
2,CTTCTTCC,-0.211
3,ACCGGGGA,-0.186
4,ACACTGCA,-0.0747
5,ACGTTTGG,0.309
6,CGCGTCAG,-0.163
7,GAGAGGAA,-0.049
8,ATACTCAT,-0.111
9,ACCAGAAC,0.0633
10,AGAAAGGA,-0.227
11,ATTTAACA,0.0412
12,AATCAAAT,-0.133
13,AGGCAGGC,-0.19
14,ATGGACAA,0.0246
15,AGGGTATG,-0.00582
16,CCAATTCC,-0.12
17,ATTATCGC,0.0165
18,CGGAAAAA,0.207
19,AACTGTGG,-0.257
20,ACCTGGGC,-0.155
21,GGTTGAAC,0.0628
22,CATTAACG,0.304
